Results reported in PubChem BioAssay AID686970 (National Center for Advancing Translational Sciences (NCATS), 2013).
The whole screen tested about 360,000 compounds, of which about 6,000 (1.7%) were called active. Inconclusive means that the source gave no clear call. Such entries were picked first, then a sample of the others. The call rests on the fitted dose curve; in most records, active means well fitted cell-killing curve with a large enough effect; inconclusive means small, poorly fitted or top-dose-only effect, or effect the other way; inactive means flat fitted curve, though single readings scatter. No potency is given beside an inconclusive call; the fits are too rough.

Experiment: qHTS for induction of synthetic lethality in tumor cells producing 2HG: qHTS for the HT-1080-NT fibrosarcoma cell line;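 further: NT is the 2HG producing partner of a matched IDH1 knockdown line; nearly all actives have a fitted effect of over 55% in size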;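 on activity, negative = less viability: 0% = DMSO-treated cells and -100% = media-only wells without cells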
Conditions: HT-1080-NT fibrosarcoma viability, CellTiter-Glo ATP luminescence, 48 h; activity, negative = less viability: at 46.1 µM (top of the series) unless noted
How it was run: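 Compounds were tested in concentration-response format on HT-1080-NT cells for 48 hours at 37 degrees C. Cell viability came from CellTiter-Glo luminescence; curves were classified by r2, response magnitude and activity.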
Potency means the concentration at half of the fitted maximal effect; tags describe the fitted curve by direction and shape.

Compound	activity, negative = less viability	Potency
Cc1ccccc1NC(=O)c1cnn(-c2ccccc2)c1C	inconclusive: 30.4%	
O=[N+]([O-])c1ccc2[nH]c(=S)sc2c1		inconclusive [cytotoxic, single point]
Cc1ccc(C2=NN(C(=O)CSc3nccn3C)C(c3ccco3)C2)cc1 (stereo unspecified)		active: 18.4 µM
Cc1c(C#N)c2ccccc2n1C	inactive: 11.2%	
CCOC(=O)c1ccccc1NC(=O)CC1SC(=NC)N(C)C1=O (stereo unspecified)	inconclusive: 36.8%	
Cc1ccc(CNCC(O)(c2ccccc2)c2ccc(Cl)cc2)cc1 (stereo unspecified)		active: 23.1 µM
CCN(CC)S(=O)(=O)c1cccc(C(=O)OCC(=O)Nc2ccc3c(c2)c2ccccc2n3CC)c1	inactive: -2.26%	
COCCNC(=O)C(c1ccc(Cl)cc1)N(CCOC)C(=O)CCC(=O)Nc1ccccn1 (stereo unspecified)		inconclusive [rising, partial curve, poor fit]
Cc1cccc(C(=O)NC(C(=O)Nc2nc(-c3ccccn3)cs2)C(C)C)c1 (stereo unspecified)	inactive: -28.1%	
Cc1ccc(C2Cc3cc(O)c(O)cc3CN2)cc1 (stereo unspecified)		inconclusive [cytotoxic, partial curve]
COC(=O)c1sccc1-n1cccc1C(=O)C(=O)N1CC(C)OC(C)C1 (stereo unspecified)		inconclusive [rising, partial curve, poor fit]
Cc1ccc(F)cc1NC(=O)c1sc2ncn(CC(=O)N3CCN(c4ccccn4)CC3)c(=O)c2c1C	inactive: -0.274%	
Cc1ccc(NCC(=O)N/N=C/c2cc3ccccc3nc2Cl)cc1		inconclusive [cytotoxic, partial curve, poor fit]
O=C(NN1C(=O)C2C3c4ccccc4C(c4ccccc43)C2C1=O)c1ccc(Cl)cc1 (stereo unspecified)	inactive: -4.81%	
CNC(=O)c1ccccc1Nc1ccc(SC(F)F)cc1		inconclusive [cytotoxic, single point]
Cc1ccccc1CN1CC2=C(CCN(Cc3ccccc3)C2=O)N2CCN=C12	inconclusive: -0.282% [cytotoxic]	
CC(C)NS(=O)(=O)c1ccc(OCC(=O)N2CCN(c3ccccc3)CC2)cc1	inactive: 0.118%	
C/C=C/C(=O)NCCc1ccc(OC)c(OC)c1	inactive: 19.2%	

Compound	activity, negative = less viability	Potency
Cc1ccc(NC(=O)c2cc(N3C(=O)C=CC3=O)ccc2N2CCOCC2)cc1		inconclusive [cytotoxic, single point]
COC(=O)c1nn(-c2ccc3c(c2)OCO3)cc1O		inconclusive [cytotoxic, single point]
CC1(C(=O)NS(=O)(=O)c2ccc(F)cc2F)CCN1C(=O)c1cccc(F)c1 (stereo unspecified)		inconclusive [rising, partial curve]
CCNC(=S)N(CCc1c(C)[nH]c2ccc(Cl)cc12)Cc1ccco1		inconclusive [cytotoxic, single point]
Cc1ccc(N=Nc2ccc(O)c(/C=N\NC(=O)c3ccc(N)cc3)c2)cc1C		active: 3.98 µM
C[C@H](NC(=O)c1[nH]cnc1C(=O)Nc1cccc(Cl)c1)c1ccccc1		inconclusive [cytotoxic, single point]
O=C(NCc1ccco1)c1cc([N+](=O)[O-])ccc1Cl		inconclusive [rising, partial curve]
Cc1ccc(C(=O)Nc2cccc(N(C)S(C)(=O)=O)c2)cc1S(=O)(=O)Nc1ccccc1		inconclusive [cytotoxic, partial curve]
O=C(N/N=C/c1c(O)ccc2ccccc12)C(=O)N1CCCC1		inconclusive [cytotoxic, full curve, poor fit]
CCCCCc1c(-c2ccc(OC)c(OC)c2)ncn1CCc1ccccc1OC		active: 20.6 µM
COc1ccc(-c2ccc(C(=O)NCc3ccco3)c3occc23)c(C)c1		inconclusive [cytotoxic, partial curve, poor fit]
CCOP(=O)(OCC)c1nc(-c2cccc3ccccc23)oc1NCc1ccc(OC)cc1		inconclusive [cytotoxic, single point]
N#CC1=C(SCC(=O)NC23CC4CC(CC(C4)C2)C3)NC(=O)C(C#N)C12CCCCC2 (stereo unspecified)		inconclusive [cytotoxic, single point]
c1ccc(CNc2ncnc3c2cnn3Cc2ccccc2)cc1		active: 7.94 µM
Cc1ccn2c(Nc3ccccc3)c(-c3ccccn3)nc2c1	inactive: -21.6%	
CC(C)NC(=O)c1cc(-c2ccc(F)cc2OC(C)C)n[nH]1	inactive: 19.2%	
NC(Cc1ccc(C(F)(F)F)cc1)c1csc(Nc2ccc(C(=O)c3ccccc3)cc2)n1 (stereo unspecified)		inconclusive [cytotoxic, single point]
CN1/C(=C\C(=O)c2cccs2)Sc2ccccc21		inconclusive [cytotoxic, single point]
